# Substitutions are numbered along the chain they refer to; changes in the protein carry UniProt numbers. This is one part of the list.
# T1: RBFOX1 RRM RbFoxmut (Fox-RRM*) (Homo sapiens, UniProt Q9NWB1 109-208, R118D;E147R;N151S;E152T)
# T1 sequence: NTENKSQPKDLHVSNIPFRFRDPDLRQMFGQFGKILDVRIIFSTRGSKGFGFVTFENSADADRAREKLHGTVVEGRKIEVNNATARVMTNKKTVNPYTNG
# B1: UACCCUU (DNA:RNA)
# RNA: GGGAGACCGGAAUUCAGAUUGUCCUACCCUUUUAAAUCCCGUCGUAGCCACCA
# DNA 1: CAATCTGAATTCCGGTCTCCC
# DNA 2: TGGTGGCTACGACGGGATT
# B2: GUAACUG (DNA:RNA)
# RNA: B1 RNA with U25G, A26U, C27A, C28A, U31G
# DNA 1: CAATCTGAATTCCGGTCTCCC
# DNA 2: TGGTGGCTACGACGGGATT
# B3: GUGAAGC (DNA:RNA)
# RNA: GGGAGACCGGAAUUCAGAUUGUCCGUGAAGCUUAAAUCCCGUCGUAGCCACCA
# DNA 1: CAATCTGAATTCCGGTCTCCC
# DNA 2: TGGTGGCTACGACGGGATT
# B4: AUACACA (DNA:RNA)
# RNA: B3 RNA with G25A, G27A, A28C, G30C, C31A
# DNA 1: CAATCTGAATTCCGGTCTCCC
# DNA 2: TGGTGGCTACGACGGGATT
# B5: AGUGUCA (DNA:RNA)
# RNA: GGGAGACCGGAAUUCAGAUUGUCCAGUGUCAUUAAAUCCCGUCGUAGCCACCA
# DNA 1: CAATCTGAATTCCGGTCTCCC
# DNA 2: TGGTGGCTACGACGGGATT
# B6: GCCUACC (DNA:RNA)
# RNA: B3 RNA with U26C, G27C, A28U, G30C
# DNA 1: CAATCTGAATTCCGGTCTCCC
# DNA 2: TGGTGGCTACGACGGGATT
# B7: GGGCGUG (DNA:RNA)
# RNA: B3 RNA with U26G, A28C, A29G, G30U, C31G
# DNA 1: CAATCTGAATTCCGGTCTCCC
# DNA 2: TGGTGGCTACGACGGGATT
# B8: CUUUAUA (DNA:RNA)
# RNA: B5 RNA with A25C, G26U, G28U, U29A, C30U
# DNA 1: CAATCTGAATTCCGGTCTCCC
# DNA 2: TGGTGGCTACGACGGGATT
# B9: UCCACUC (DNA:RNA)
# RNA: B1 RNA with A26C, C28A, U31C
# DNA 1: CAATCTGAATTCCGGTCTCCC
# DNA 2: TGGTGGCTACGACGGGATT
# B10: UGCACUU (DNA:RNA)
# RNA: B1 RNA with A26G, C28A
# DNA 1: CAATCTGAATTCCGGTCTCCC
# DNA 2: TGGTGGCTACGACGGGATT
# B11: UAAUCAG (DNA:RNA)
# RNA: B1 RNA with C27A, C28U, U30A, U31G
# DNA 1: CAATCTGAATTCCGGTCTCCC
# DNA 2: TGGTGGCTACGACGGGATT
# B12: CCAGGUU (DNA:RNA)
# RNA: B1 RNA with U25C, A26C, C27A, C28G, C29G
# DNA 1: CAATCTGAATTCCGGTCTCCC
# DNA 2: TGGTGGCTACGACGGGATT
# B13: CGCAGGA (DNA:RNA)
# RNA: B5 RNA with A25C, U27C, G28A, U29G, C30G
# DNA 1: CAATCTGAATTCCGGTCTCCC
# DNA 2: TGGTGGCTACGACGGGATT
# B14: UGCUGAA (DNA:RNA)
# RNA: B5 RNA with A25U, U27C, G28U, U29G, C30A
# DNA 1: CAATCTGAATTCCGGTCTCCC
# DNA 2: TGGTGGCTACGACGGGATT
# B15: CAGACUA (DNA:RNA)
# RNA: B1 RNA with U25C, C27G, C28A, U31A
# DNA 1: CAATCTGAATTCCGGTCTCCC
# DNA 2: TGGTGGCTACGACGGGATT
# B16: AUGCUCG (DNA:RNA)
# RNA: B5 RNA with G26U, U27G, G28C, A31G
# DNA 1: CAATCTGAATTCCGGTCTCCC
# DNA 2: TGGTGGCTACGACGGGATT
# B17: UCGUGGC (DNA:RNA)
# RNA: B3 RNA with G25U, U26C, A28U, A29G
# DNA 1: CAATCTGAATTCCGGTCTCCC
# DNA 2: TGGTGGCTACGACGGGATT
# B18: CUCUGAU (DNA:RNA)
# RNA: B1 RNA with U25C, A26U, C28U, C29G, U30A
# DNA 1: CAATCTGAATTCCGGTCTCCC
# DNA 2: TGGTGGCTACGACGGGATT
# B19: GGCCCGG (DNA:RNA)
# RNA: B1 RNA with U25G, A26G, U30G, U31G
# DNA 1: CAATCTGAATTCCGGTCTCCC
# DNA 2: TGGTGGCTACGACGGGATT
# B20: GAUGCGU (DNA:RNA)
# RNA: B1 RNA with U25G, C27U, C28G, U30G
# DNA 1: CAATCTGAATTCCGGTCTCCC
# DNA 2: TGGTGGCTACGACGGGATT
# B21: CGCGCGG (DNA:RNA)
# RNA: B5 RNA with A25C, U27C, U29C, C30G, A31G
# DNA 1: CAATCTGAATTCCGGTCTCCC
# DNA 2: TGGTGGCTACGACGGGATT
# B22: ACUUAUU (DNA:RNA)
# RNA: B5 RNA with G26C, G28U, U29A, C30U, A31U
# DNA 1: CAATCTGAATTCCGGTCTCCC
# DNA 2: TGGTGGCTACGACGGGATT
# B23: AGCAACC (DNA:RNA)
# RNA: B5 RNA with U27C, G28A, U29A, A31C
# DNA 1: CAATCTGAATTCCGGTCTCCC
# DNA 2: TGGTGGCTACGACGGGATT
# B24: AACCGUA (DNA:RNA)
# RNA: B1 RNA with U25A, C29G, U31A
# DNA 1: CAATCTGAATTCCGGTCTCCC
# DNA 2: TGGTGGCTACGACGGGATT
# B25: CGAUAUU (DNA:RNA)
# RNA: B1 RNA with U25C, A26G, C27A, C28U, C29A
# DNA 1: CAATCTGAATTCCGGTCTCCC
# DNA 2: TGGTGGCTACGACGGGATT
# B26: CUGUUAG (DNA:RNA)
# RNA: B3 RNA with G25C, A28U, A29U, G30A, C31G
# DNA 1: CAATCTGAATTCCGGTCTCCC
# DNA 2: TGGTGGCTACGACGGGATT
# B27: GGUCACG (DNA:RNA)
# RNA: B5 RNA with A25G, G28C, U29A, A31G
# DNA 1: CAATCTGAATTCCGGTCTCCC
# DNA 2: TGGTGGCTACGACGGGATT
# B28: AAUUAUU (DNA:RNA)
# RNA: B1 RNA with U25A, C27U, C28U, C29A
# DNA 1: CAATCTGAATTCCGGTCTCCC
# DNA 2: TGGTGGCTACGACGGGATT
# B29: GCUUGGG (DNA:RNA)
# RNA: B3 RNA with U26C, G27U, A28U, A29G, C31G
# DNA 1: CAATCTGAATTCCGGTCTCCC
# DNA 2: TGGTGGCTACGACGGGATT
# B30: UGUGCAC (DNA:RNA)
# RNA: B5 RNA with A25U, U29C, C30A, A31C
# DNA 1: CAATCTGAATTCCGGTCTCCC
# DNA 2: TGGTGGCTACGACGGGATT
# B31: UCCGGCG (DNA:RNA)
# RNA: B5 RNA with A25U, G26C, U27C, U29G, A31G
# DNA 1: CAATCTGAATTCCGGTCTCCC
# DNA 2: TGGTGGCTACGACGGGATT
# Target: T1, RBFOX1 RRM RbFoxmut (Fox-RRM*)
# Experiment: EMSA; HiTS-Eq, 1 nM pool, 10 min; buffer printed only for the single-RNA assays: 10 mM Tris pH 7.5, 150 mM NaCl, 3.4 mM EDTA, 0.001% NP-40, 30 C
# Conditions: tags: His6 N-terminal (pET28a); label: 5' 32P
# Procedure, shortened: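 Purified RbFox RRM (wild type or mutant) was equilibrated for 10 min in 50 µL with 1 nM of a 5′-radiolabelled pool of RNA with 7 randomized nucleotides, its flanks annealed to DNA oligonucleotides, across increasing protein concentrations. Free RNA was separated by 8% native PAGE, excised, reverse-transcribed, PCR-barcoded and sequenced on an Illumina HiSeq 2500. Relative association constants came from read-count changes of each variant against the control reaction, normalised to the cognate motif.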
row,Binder,binding signal
1,B1,0.0744 KA relative to UGCAUGU
2,B2,0.0807 KA relative to UGCAUGU
3,B3,0.107 KA relative to UGCAUGU
4,B4,0.0866 KA relative to UGCAUGU
5,B5,0.143 KA relative to UGCAUGU
6,B6,0.0624 KA relative to UGCAUGU
7,B7,0.294 KA relative to UGCAUGU
8,B8,0.132 KA relative to UGCAUGU
9,B9,0.0752 KA relative to UGCAUGU
10,B10,0.0762 KA relative to UGCAUGU
11,B11,0.0626 KA relative to UGCAUGU
12,B12,0.0813 KA relative to UGCAUGU
13,B13,0.0809 KA relative to UGCAUGU
14,B14,0.12 KA relative to UGCAUGU
15,B15,0.063 KA relative to UGCAUGU
16,B16,0.194 KA relative to UGCAUGU

row,Binder,binding signal
1,B17,0.116 KA relative to UGCAUGU
2,B18,0.119 KA relative to UGCAUGU
3,B19,0.0923 KA relative to UGCAUGU
4,B20,0.11 KA relative to UGCAUGU
5,B21,0.0961 KA relative to UGCAUGU
6,B22,0.131 KA relative to UGCAUGU
7,B23,0.051 KA relative to UGCAUGU
8,B24,0.115 KA relative to UGCAUGU
9,B25,0.101 KA relative to UGCAUGU
10,B26,0.165 KA relative to UGCAUGU
11,B27,0.119 KA relative to UGCAUGU
12,B28,0.116 KA relative to UGCAUGU
13,B29,0.111 KA relative to UGCAUGU
14,B30,0.0994 KA relative to UGCAUGU
15,B31,0.114 KA relative to UGCAUGU

# Source: article PMC9911399, “Two distinct binding modes provide the RNA-binding protein RbFox with extraordinary sequence specificity”
